From paper PMC6149664, “Synthesis and In Vitro Antimycobacterial Activity of Novel N-Arylpiperazines Containing an Ethane-1,2-diyl Connecting Chain” (Molecules : A Journal of Synthetic Chemistry and Natural …, 2017)

System: human monocytic leukemia THP-1 cell line
Assay: In vitro cytotoxicity screening, LDH assay
Settings: THP-1 cells, 24 h, highest tested concentration 30 μM

For CC[C@@]1(O)C(=O)OCc2c1cc1n(c2=O)Cc2cc3ccccc3nc2-1 [camptothecin, reference compound], which “LD50 (lethal dose to 50% of a cell population)” value is on record?
Its value is 0.16 ± 0.07 µM.
